Measurements: the supplement of paper PMC8728848
Only a selection was taken, and the strongest signals are over-represented in it overall.

How the values were obtained:
Test in all cases: glycan array binding signal (z-score within array); higher = stronger binding
Conditions in all cases: glycan notation: IUPAC condensed, linker removed
[1] = test system: Neu5Ac(a2-6)Gal(b1-4)GlcNAc(b1-2)Man(a1-3)[Neu5Ac(a2-6)Gal(b1-4)GlcNAc(b1-2)Man(a1-6)]Man(b1-4)GlcNAc(b1-4)[Fuc(a1-6)]GlcNAc
Method in brief: (§1)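 Glycan array binding is given as a within-array Z-score, which can be read as non-binding when negative. The arrays, 3228 of them, came from the Consortium for Functional Glycomics database and were retained only where the protein sequence was available. Z-scores were averaged across arrays of the same protein sequence at different concentrations or buffers and across linkers.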

[2] = test system: Neu5Ac(a2-6)Gal(b1-4)GlcNAc(b1-2)Man(a1-6)Man(b1-4)GlcNAc(b1-4)GlcNAc
Method in brief: as §1

[3] = test system: Neu5Ac(a2-6)Gal(b1-4)GlcNAc(b1-2)Man(a1-6)[Man(a1-3)]Man(b1-4)GlcNAc(b1-4)GlcNAc
Method in brief: as §1

[4] = test system: Neu5Ac(a2-6)Gal(b1-4)GlcNAc(b1-3)Gal(b1-4)GlcNAc(b1-6)[Gal(b1-3)]GalNAc
Method in brief: as §1

[5] = test system: Neu5Ac(a2-6)Gal(b1-4)GlcNAc(b1-2)[Neu5Ac(a2-6)Gal(b1-4)GlcNAc(b1-4)]Man(a1-3)[GlcNAc(b1-4)][Neu5Ac(a2-6)Gal(b1-4)GlcNAc(b1-2)[Neu5Ac(a2-6)Gal(b1-4)GlcNAc(b1-6)]Man(a1-6)]Man(b1-4)GlcNAc(b1-4)GlcNAc
Method in brief: as §1

[6] = test system: Neu5Ac(a2-6)Gal(b1-4)GlcNAc(b1-3)Gal(b1-4)GlcNAc(b1-2)Man(a1-3)[Neu5Ac(a2-6)Gal(b1-4)GlcNAc(b1-3)Gal(b1-4)GlcNAc(b1-2)Man(a1-6)]GalNAc
Method in brief: as §1

[7] = test system: Neu5Ac(a2-6)Gal(b1-4)GlcNAc(b1-6)GalNAc
Method in brief: as §1

[8] = test system: Neu5Ac(a2-6)Gal(b1-4)GlcNAc(b1-6)[Gal(b1-3)GlcNAc(b1-3)]Gal(b1-4)Glc
Method in brief: as §1

[9] = test system: Neu5Ac(a2-6)Gal(b1-4)GlcNAc(b1-2)[Neu5Ac(a2-6)Gal(b1-4)GlcNAc(b1-6)]Man(a1-6)[Neu5Ac(a2-6)Gal(b1-4)GlcNAc(b1-2)Man(a1-3)][GlcNAc(b1-4)]Man(b1-4)GlcNAc(b1-4)GlcNAc
Method in brief: as §1

[10] = test system: Neu5Ac(a2-6)Gal(b1-4)GlcNAc
Method in brief: as §1

[11] = test system: Neu5Ac(a2-6)Gal(b1-4)GlcNAc(b1-3)GalNAc
Method in brief: as §1

[12] = test system: Neu5Ac(a2-6)GalNAc(b1-4)GlcNAc
Method in brief: as §1

Neu5Ac(a2-6)Gal(b1-4)Glc = test system: Neu5Ac(a2-6)Gal(b1-4)Glc
Method in brief: as §1

## Thrombomodulin Extracellular (Homo sapiens) (chain not printed)
[1]
  glycan array binding signal (z-score): 0.403
[2]
  glycan array binding signal (z-score): 2.06

## Meso764 (Homo sapiens) (chain not printed)
[3]
  glycan array binding signal (z-score): 0.299
[4]
  glycan array binding signal (z-score): -0.641

## MBP (Homo sapiens) (chain not printed)
[5]
  glycan array binding signal (z-score): -0.219
[6]
  glycan array binding signal (z-score): 0.503
[7]
  glycan array binding signal (z-score): 0.543
[8]
  glycan array binding signal (z-score): -0.335

## Gal 3 (Homo sapiens) (chain not printed)
[9]
  glycan array binding signal (z-score): -0.083
[10]
  glycan array binding signal (z-score): -0.294

## M-Ficolin (Homo sapiens) (chain not printed)
[11]
  glycan array binding signal (z-score): 0.198
[12]
  glycan array binding signal (z-score): -0.068

## Gal 8 long (Homo sapiens) (chain not printed)
[10]
  glycan array binding signal (z-score): -0.32

## L-Ficolin (Homo sapiens) (chain not printed)
Neu5Ac(a2-6)Gal(b1-4)Glc
  glycan array binding signal (z-score): -0.476

## M-Ficolin Y271F (Homo sapiens) (chain not printed)
Neu5Ac(a2-6)Gal(b1-4)Glc
  glycan array binding signal (z-score): -0.077

## Collectin K1 (Homo sapiens) (chain not printed)
[12]
  glycan array binding signal (z-score): -0.039
